{"source": "PubChem BioAssay AID485364", "about": "(National Center for Advancing Translational Sciences (NCATS), 2010)", "note": "Hit rate of the full screen: of about 360,000 compounds, about 11,000 (3.1%) were called active. Inconclusive results, whose numbers are uncertain, are shown with a selection of clear calls. Calls follow the shape of the dose curve; as a rule, active = well fitted inhibition curve with a large enough effect; inconclusive = small, poorly fitted or top-dose-only effect; inactive = no such curve, though single readings can be large or run the other way. No potency is given beside an inconclusive call; the fits are too rough. % is scaled to controls: 0 for no effect and ±100 for the full control effect; potency is read from the fitted curve at half-maximal effect; tags tell the direction and shape of the fitted curve.", "data": [{"molecular_target": "Schistosoma mansoni thioredoxin glutathione reductase (TGR) (UniProt Q962Y6)", "assay": "qHTS Assay for the Inhibitors of Schistosoma Mansoni Peroxiredoxins; also: nearly all actives have a fitted effect of over 60% in size", "conditions": "purified TGR, DTNB reduction, TNB absorbance 405 nm; activity change, negative = inhibition: at 114 µM (top of the series) unless noted", "method_in_brief": "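TGR 20 nM + NADPH 100 uM (dispensed conc.), cpd preinc 15 min RT; start with NADPH (500 uM addition) then DTNB (15 mM addition). Kinetic TNB absorbance, 405 nm filter. Four-parameter Hill fit across titration.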", "values": [{"compound": "Cc1cc(C)c(-n2c(O)c(C=NCCN3CCOCC3)c(=O)[nH]c2=O)c(C)c1", "Potency": "inconclusive [inhibitor, full curve, poor fit]"}, {"compound": "CC(=Nc1ccccc1C(F)(F)F)c1ccncc1", "activity change, negative = inhibition": "inactive: 2.3%"}, {"compound": "C/C(CC(=O)Nc1ccc(N(C)C)cc1)=N\\NC(=O)c1ccncc1", "Potency": "inconclusive [inhibitor, partial curve]"}, {"compound": "C#CCNC(=O)C1=C[C@@H](c2cn(C(C)=O)c3ccccc23)C[C@@H](OCc2ccc(CO)cc2)O1", "Potency": "inconclusive [inhibitor, partial curve]"}, {"compound": "Nc1c(C(=O)OCC2CCCO2)c2nc3ccccc3nc2n1C1CCCC1", "note": "(centres undefined)", "Potency": "inconclusive [inhibitor, single point]"}, {"compound": "COc1ccc(CC(=O)NCC(c2cccs2)S(=O)(=O)c2ccc(F)cc2)cc1", "note": "(centres undefined)", "Potency": "inconclusive [inhibitor, partial curve]"}, {"compound": "CCc1ccc(CCC(=O)Nc2ccc(C)c(C)c2)o1", "Potency": "inconclusive [inhibitor, partial curve]"}, {"compound": "Cc1cc(N2CCOCC2)ccc1/C=C1\\C(=O)NC(=O)N(c2ccccc2)C1=O", "Potency": "inconclusive [inhibitor, full curve]"}, {"compound": "NC1(C#Cc2ccc3oc(=O)c(-n4cc(-c5ccsc5)nn4)cc3c2)CCCCC1", "Potency": "active: 56.2 µM"}, {"compound": "O=c1c2c([N+](=O)[O-])cc([N+](=O)[O-])cc2sn1-c1ccc(Br)cc1", "Potency": "inconclusive [inhibitor, partial curve]"}, {"compound": "CCCSc1nnc(NC(=O)Nc2ccc(F)cc2)s1", "Potency": "active: 89.1 µM"}, {"compound": "Cc1ccc(OCC(=O)Nc2ccc(CN3CCOCC3)cc2)cc1C", "Potency": "inconclusive [inhibitor, partial curve]"}, {"compound": "COc1ccc(C2CC(=O)N(CC(=O)NCC3CCCO3)c3ccccc3S2)cc1", "note": "(centres undefined)", "activity change, negative = inhibition": "inactive: -10%"}, {"compound": "COc1ccc(OC)c(NC(=O)C2=C(C)C(=O)OC23CCN(C(C)C)CC3)c1", "Potency": "inconclusive [inhibitor, partial curve]"}, {"compound": "CCC(C)[C@H](NC(=O)N1CC(=O)Nc2ccccc21)C(=O)N[C@H](Cc1c[nH]c2ccccc12)C(=O)O", "note": "(some centres undefined)", "Potency": "inconclusive [inhibitor, partial curve]"}, {"compound": "C[C@@]12CCC=C[C@H]1[C@H](c1ccoc1)N(Cc1ccccc1)C2=O", "Potency": "active: 35.5 µM"}, {"compound": "O=C(CSc1nnc(-c2ccco2)n1-c1ccccc1Cl)Nc1cccc(C(=O)O)c1", "Potency": "inconclusive [inhibitor, partial curve]"}, {"compound": "Cc1ccc(C(=O)c2c(N)c(C(=O)Nc3cccc(C(F)(F)F)c3)c3ccccn23)cc1", "activity change, negative = inhibition": "inactive: -3.49%"}, {"compound": "Cc1c(C(=O)OCCOC(C)C)[nH]c2c1C(=O)CC(c1ccco1)C2", "note": "(centres undefined)", "Potency": "inconclusive [inhibitor, partial curve]"}, {"compound": "Cc1ccc(-c2nc(CN3CCN(c4cnccn4)CC3)c(C)o2)o1", "Potency": "inconclusive [inhibitor, partial curve]"}, {"compound": "CC1=C(C(N)=O)S(=O)(=O)c2ccccc21", "Potency": "inconclusive [inhibitor, single point]"}, {"compound": "O=C(Nc1nc2cc3c(cc2s1)OCCO3)C1CCCCC1", "activity change, negative = inhibition": "inactive: 0.924%"}, {"compound": "CCCc1[nH]nc2c1C(c1cccc(OC)c1)C(C#N)=C(N)O2", "note": "(centres undefined)", "Potency": "inconclusive [inhibitor, partial curve]"}, {"compound": "C=CCN(C(=O)CSC1=NC(=O)CN1C(C)=O)c1nc(C)c(-c2ccccc2)s1", "Potency": "active: 4.47 µM"}, {"compound": "COc1ccc(N(C)C(=O)CCS(=O)(=O)c2cccc3nonc23)cc1", "Potency": "inconclusive [inhibitor, partial curve]"}, {"compound": "Cc1ccc(NC(=O)CN(C)CC(=O)Nc2sc3c(c2C(N)=O)CCC3)cc1", "Potency": "inconclusive [inhibitor, partial curve]"}, {"compound": "O=C(NC(=S)Nc1ccccc1[N+](=O)[O-])c1ccccc1Cl", "Potency": "inconclusive [inhibitor, partial curve]"}, {"compound": "CCCNC(=O)c1ccc2c(=O)n(Cc3ccco3)c(=S)[nH]c2c1", "Potency": "inconclusive [inhibitor, partial curve]"}, {"compound": "COc1ccc(NS(=O)(=O)c2cccc(NC(=O)CCC(=O)c3ccc(Cl)cc3)c2)cc1", "activity change, negative = inhibition": "inactive: -1.53%"}, {"compound": "CCCCCCN(C(=O)CCCCCN1C(=O)NC(c2ccc(-c3ccccc3)cc2)C(C(=O)OCc2ccccc2)=C1C)C(C)C(=O)NCCCC", "note": "(centres undefined)", "activity change, negative = inhibition": "inactive: -6.53%"}, {"compound": "CCOc1ccccc1N1C(=O)CC(N(O)c2ccccc2)C1=O", "note": "(centres undefined)", "Potency": "inconclusive [inhibitor, partial curve]"}, {"compound": "CCOc1ccc(NC(=O)CSc2nnc(Cc3cccn3C)n2-c2ccc(OC)cc2)cc1", "Potency": "inconclusive [inhibitor, partial curve]"}, {"compound": "COC(=O)c1nc2nc(C)cc(C(F)(F)F)n2n1", "activity change, negative = inhibition": "inactive: -28.7%"}, {"compound": "CCC(=NCc1ccco1)c1c(O)n(Cc2ccccc2)c(=O)[nH]c1=O", "Potency": "active: 28.2 µM"}, {"compound": "CCOC(=O)c1cnc(SCC(=O)Nc2cc(OC)cc(OC)c2)nc1N", "Potency": "inconclusive [inhibitor, full curve, poor fit]"}, {"compound": "COc1ccc(C)cc1-n1nnnc1SCC(=O)NC(=O)NCc1ccco1", "Potency": "inconclusive [inhibitor, partial curve]"}, {"compound": "CCn1c(C)c(C)c2cc(C(=O)NCCN3CCCCCC3)ccc21", "Potency": "inconclusive [inhibitor, partial curve, poor fit]"}, {"compound": "O=[N+]([O-])c1ccc(N/N=C2\\CC3CC=CC23)c([N+](=O)[O-])c1", "note": "(centres undefined)", "Potency": "inconclusive [inhibitor, partial curve]"}, {"compound": "O=C(Nc1ccc2oc(-c3ccccc3F)nc2c1)c1ccco1", "Potency": "inconclusive [inhibitor, single point]"}, {"compound": "Cc1cccc(CN2CCc3c([nH]c4ccccc34)C2CC(C)C)n1", "note": "(centres undefined)", "activity change, negative = inhibition": "inactive: -2.84%"}, {"compound": "Nc1ccc(Nc2ccccc2N)cc1", "Potency": "inconclusive [inhibitor, partial curve]"}, {"compound": "COCc1cc(=O)n2[nH]c(-c3ccsc3-n3c(C)ccc3C)cc2n1", "Potency": "inconclusive [inhibitor, partial curve, poor fit]"}, {"compound": "C1CCC(CNc2c3c(nc4nnnn24)CCCC3)CC1", "Potency": "inconclusive [inhibitor, partial curve]"}, {"compound": "CCOc1cc(/C=C2\\N=C(SC(C)C(N)=O)N(c3ccc(OC(F)F)cc3)C2=O)ccc1O", "note": "(centres undefined)", "Potency": "inconclusive [inhibitor, full curve, poor fit]"}, {"compound": "CN1C(=O)/C(=C\\c2ccc(Br)s2)C(=O)NC1=S", "Potency": "active: 3.16 µM"}, {"compound": "O=C(/C=C/c1ccc(Cl)cc1)c1cccnc1", "Potency": "active: 14.1 µM"}, {"compound": "COc1ccc(NC(=O)CN(C)C(=O)c2cc(-c3ccco3)nc3ccccc23)cc1", "Potency": "active: 5.01 µM"}, {"compound": "S=C(NCc1ccc(Cl)cc1)Nc1ccccc1", "Potency": "inconclusive [inhibitor, full curve]"}, {"compound": "Cc1cc(C)cc(N2C(=O)NC(=O)/C(=C\\C=C\\c3ccco3)C2=O)c1", "Potency": "inconclusive [inhibitor, partial curve]"}, {"compound": "CCS(=O)(=O)Nc1ccc(C2=NN(S(=O)(=O)c3ccc(F)cc3)C(c3ccco3)C2)cc1", "note": "(centres undefined)", "Potency": "active: 44.7 µM"}, {"compound": "O=C(NCc1ccc(OC(F)(F)F)cc1)C1CC(c2c(Cl)cccc2Cl)=NO1", "note": "(centres undefined)", "activity change, negative = inhibition": "inactive: 0%"}, {"compound": "Cc1sc2ncnc(NCCCN3CCCC3=O)c2c1C", "activity change, negative = inhibition": "inactive: 6.43%"}, {"compound": "COC(=O)[C@H](CCSC)NC(=O)c1cccnc1SC", "Potency": "inconclusive [inhibitor, single point]"}, {"compound": "N#CC1=C(N)C(C#N)(C#N)C(c2cccnc2)C2CC(c3ccccc3)CC=C12", "note": "(centres undefined)", "Potency": "inconclusive [inhibitor, partial curve]"}, {"compound": "CCOC(=O)N1CCN(C(=O)CCSc2ccc(C)cc2)CC1", "activity change, negative = inhibition": "inactive: 1.08%"}, {"compound": "O=C(c1cc(C2CC2)nn1-c1ccccc1)N1CCN(c2ccc(O)cc2)CC1", "Potency": "inconclusive [inhibitor, partial curve]"}, {"compound": "Cn1c(CN2CCCC2)nc2cc(NC(=O)c3ccco3)ccc21", "Potency": "inconclusive [inhibitor, partial curve]"}, {"compound": "O=C(Cn1c(NCCCO)nc2ccccc21)c1ccc(Br)cc1", "Potency": "inconclusive [inhibitor, single point]"}, {"compound": "C/C(=N\\Nc1ccccc1)c1cccc(N)c1", "Potency": "inconclusive [inhibitor, partial curve]"}, {"compound": "Brc1c(CSc2nc3ccccc3o2)nc2ncccn12", "activity change, negative = inhibition": "inactive: -4.6%"}, {"compound": "CCN1CCN(S(=O)(=O)c2cc3c(cc2Cl)NC(=O)CO3)CC1", "activity change, negative = inhibition": "inactive: 21.6%"}, {"compound": "CCOC(=O)C1(CCOC)CCN(Cc2ccccc2-c2ccco2)CC1", "Potency": "active: 35.5 µM"}, {"compound": "Cc1ccc(C(C)(C)C)cc1S(=O)(=O)Nc1cccc(C(=O)N2CCN(c3ccccn3)CC2)c1", "activity change, negative = inhibition": "inactive: 3.82%"}, {"compound": "CN1CCN(C(=O)c2ccc3ccccc3c2)CC1", "Potency": "inconclusive [inhibitor, partial curve]"}, {"compound": "O=C(NCCSc1ccc(Cl)cc1)c1ccco1", "activity change, negative = inhibition": "inactive: -1.61%"}, {"compound": "COC(=O)c1c(C)oc(C)c1S(=O)(=O)N1CCOCC1", "Potency": "inconclusive [inhibitor, partial curve]"}, {"compound": "Cc1ccc(OCc2cc(C(=O)NCCc3cccnc3)no2)cc1C", "Potency": "inconclusive [inhibitor, full curve, poor fit]"}, {"compound": "CCCCN(C(=O)/C=C/c1ccco1)c1c(N)n(Cc2ccccc2)c(=O)[nH]c1=O", "Potency": "inconclusive [inhibitor, full curve]"}, {"compound": "Cc1cnccc1CNC(=O)CC1C(=O)NCCN1CC(C)(C)C", "note": "(centres undefined)", "Potency": "inconclusive [inhibitor, partial curve]"}]}]}
